According to the supplement of paper PMC8728848:
The other results are listed elsewhere or left out.

What was measured:
Test in all cases: glycan array binding signal (z-score within array); higher = stronger binding
Details in all cases: glycan notation: IUPAC condensed, linker removed
[1] = target: Man(a1-2)Man(a1-3)[Man(a1-2)Man(a1-6)]Man
In short: (§1)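 Arrays were curated from the Consortium for Functional Glycomics database, 3228 in total, and kept only where the protein sequence was available. Binding is expressed as a within-array Z-score. This score was averaged across arrays of the same protein sequence at different concentrations or buffers and across linkers, and negative values can be read as non-binding.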

[2] = target: Man(a1-2)Man(a1-3)[Man(a1-2)Man(a1-6)]Man(a1-6)[Man(a1-2)Man(a1-2)Man(a1-3)]Man
In short: as §1

[3] = target: Man(a1-2)Man(a1-3)[Man(a1-2)Man(a1-6)]Man(a1-6)[Man(a1-2)Man(a1-2)Man(a1-3)]Man(b1-4)GlcNAc(b1-4)GlcNAc
In short: as §1

[4] = target: Man(a1-2)Man(a1-3)[Man(a1-6)]Man(a1-6)[Man(a1-2)Man(a1-3)]Man(b1-4)GlcNAc(b1-4)GlcNAc
In short: as §1

[5] = target: Man(a1-2)Man(a1-6)[Man(a1-3)]Man(a1-6)[Man(a1-2)Man(a1-2)Man(a1-3)]Man
In short: as §1

[6] = target: Man(a1-2)Man(a1-6)[Man(a1-3)]Man(a1-6)[Man(a1-2)Man(a1-2)Man(a1-3)]Man(b1-4)GlcNAc(b1-4)GlcNAc
In short: as §1

[7] = target: Man(a1-3)[Man(a1-6)]Man
In short: as §1

[8] = target: Man(a1-3)[Man(a1-6)]Man(a1-6)[Man(a1-2)Man(a1-3)]Man(b1-4)GlcNAc(b1-4)GlcNAc
In short: as §1

[9] = target: Man(a1-3)[Man(a1-6)]Man(a1-6)[Man(a1-3)]Man
In short: as §1

[10] = target: Man(a1-3)[Man(a1-6)]Man(a1-6)[Man(a1-3)]Man(b1-4)GlcNAc(b1-4)GlcNAc
In short: as §1

[11] = target: Man(a1-3)[Man(a1-6)]Man(b1-4)GlcNAc(b1-4)GlcNAc
In short: as §1

[12] = target: Man(a1-3)[Man(a1-6)]Man(b1-4)GlcNAc(b1-4)[Fuc(a1-6)]GlcNAc
In short: as §1

[13] = target: Man(a1-6)Man
In short: as §1

[14] = target: Man(b1-4)GlcNAc
In short: as §1

[15] = target: MurNAc(b1-4)GlcNAc
In short: as §1

[16] = target: Neu5Ac(a2-3)Gal
In short: as §1

[17] = target: Neu5Ac(a2-3)Gal(b1-3)GalNAc
In short: as §1

[18] = target: Neu5Ac(a2-3)Gal(b1-3)GalNAc(b1-3)Gal(a1-4)Gal(b1-4)Glc
In short: as §1

[19] = target: Neu5Ac(a2-3)Gal(b1-3)GalNAc(b1-4)[Neu5Ac(a2-3)]Gal(b1-4)Glc
In short: as §1

[20] = target: Neu5Ac(a2-3)Gal(b1-3)GalNAc(b1-4)[Neu5Ac(a2-8)Neu5Ac(a2-3)]Gal(b1-4)Glc
In short: as §1

[21] = target: Neu5Ac(a2-3)Gal(b1-3)GalNAc6S
In short: as §1

[22] = target: Neu5Ac(a2-3)Gal(b1-3)GlcNAc
In short: as §1

[23] = target: Neu5Ac(a2-3)Gal(b1-3)GlcNAc(b1-2)Man
In short: as §1

[24] = target: Neu5Ac(a2-3)Gal(b1-3)GlcNAc(b1-2)Man(a1-3)[GlcNAc(b1-4)][Neu5Ac(a2-3)Gal(b1-3)GlcNAc(b1-2)Man(a1-6)]Man(b1-4)GlcNAc(b1-4)GlcNAc
In short: as §1

[25] = target: Neu5Ac(a2-3)Gal(b1-3)GlcNAc(b1-2)Man(a1-3)[Neu5Ac(a2-3)Gal(b1-3)GlcNAc(b1-2)Man(a1-6)]Man(b1-4)GlcNAc(b1-4)GlcNAc
In short: as §1

[26] = target: Neu5Ac(a2-3)Gal(b1-3)GlcNAc(b1-3)Gal(b1-3)GlcNAc
In short: as §1

[27] = target: Neu5Ac(a2-3)Gal(b1-3)GlcNAc(b1-3)Gal(b1-4)GlcNAc
In short: as §1

[28] = target: Neu5Ac(a2-3)Gal(b1-3)GlcNAc(b1-3)GalNAc
In short: as §1

[29] = target: Neu5Ac(a2-3)Gal(b1-3)GlcNAc(b1-4)Gal(b1-4)Glc
In short: as §1

[30] = target: Neu5Ac(a2-3)Gal(b1-3)GlcNAc(b1-6)GalNAc
In short: as §1

[31] = target: Neu5Ac(a2-3)Gal(b1-3)GlcNAc6S
In short: as §1

[32] = target: Neu5Ac(a2-3)Gal(b1-3)[Fuc(a1-4)]GlcNAc
In short: as §1

[33] = target: Neu5Ac(a2-3)Gal(b1-3)[Fuc(a1-4)]GlcNAc(b1-3)Gal(b1-3)[Fuc(a1-4)]GlcNAc
In short: as §1

[34] = target: Neu5Ac(a2-3)Gal(b1-3)[Fuc(a1-4)]GlcNAc(b1-3)Gal(b1-4)[Fuc(a1-3)]GlcNAc
In short: as §1

[35] = target: Neu5Ac(a2-3)Gal(b1-3)[GlcNAc(b1-6)]GalNAc
In short: as §1

[36] = target: Neu5Ac(a2-3)Gal(b1-3)[Neu5Ac(a2-6)]GalNAc
In short: as §1

[37] = target: Neu5Ac(a2-3)Gal(b1-3)[Neu5Ac(a2-6)]GlcNAc(b1-3)[Fuc(a1-3)[Gal(b1-4)]GlcNAc(b1-6)]Gal(b1-4)Glc
In short: as §1

[38] = target: Neu5Ac(a2-3)Gal(b1-3)]Neu5Ac(a2-3)Gal(b1-4)]GlcNAc
In short: as §1

B1: LSL-150 (Laetiporus sulphureus), Q7Z8V1 (protein)
chain: MTDIYIPPEGLYFRLLGFASRQVIFARNSPSPDVGLSPVNDQATDQYFSLIYGTGEHAGLYAIKSKATGKVLFSRRPAEPYVGQIDGDGRYPDNWFKIEPGKTYLSKYFRLVQPSTGTALVSRTHLQPYFWNHPQTEVFDDQYFTFLFEDHHHHHH
glycan array binding signal (z-score) [1]: -0.208 | glycan array binding signal (z-score) [2]: -0.211 | glycan array binding signal (z-score) [3]: -0.213 | glycan array binding signal (z-score) [4]: -0.208 | glycan array binding signal (z-score) [5]: -0.212 | glycan array binding signal (z-score) [6]: -0.209 | glycan array binding signal (z-score) [7]: -0.2 | glycan array binding signal (z-score) [8]: -0.206 | glycan array binding signal (z-score) [9]: -0.204 | glycan array binding signal (z-score) [10]: -0.203 | glycan array binding signal (z-score) [11]: -0.208 | glycan array binding signal (z-score) [12]: -0.208 | glycan array binding signal (z-score) [13]: -0.204 | glycan array binding signal (z-score) [14]: -0.209 | glycan array binding signal (z-score) [15]: -0.2 | glycan array binding signal (z-score) [16]: -0.213 | glycan array binding signal (z-score) [17]: -0.208 | glycan array binding signal (z-score) [18]: -0.206 | glycan array binding signal (z-score) [19]: -0.203 | glycan array binding signal (z-score) [20]: -0.202 | glycan array binding signal (z-score) [21]: -0.202 | glycan array binding signal (z-score) [22]: -0.194 | glycan array binding signal (z-score) [23]: -0.196 | glycan array binding signal (z-score) [24]: -0.208 | glycan array binding signal (z-score) [25]: -0.203 | glycan array binding signal (z-score) [26]: -0.207 | glycan array binding signal (z-score) [27]: -0.174 | glycan array binding signal (z-score) [28]: -0.213 | glycan array binding signal (z-score) [29]: -0.216 | glycan array binding signal (z-score) [30]: -0.209 | glycan array binding signal (z-score) [31]: -0.202 | glycan array binding signal (z-score) [32]: -0.205 | glycan array binding signal (z-score) [33]: -0.215 | glycan array binding signal (z-score) [34]: -0.208 | glycan array binding signal (z-score) [35]: -0.21 | glycan array binding signal (z-score) [36]: -0.208 | glycan array binding signal (z-score) [37]: -0.203 | glycan array binding signal (z-score) [38]: -0.206
